In paper PMC5002269 (2016):

Biological target: FlAsH (Fluorescein Arsenical Helix-binder)-labeled Met1 diUb (UniProt P0CG48 part only; P0CG48 part only, FlAsH (Fluorescein Arsenical Helix-binder) label)
Experiment: FP

- Kd: 290 nM
B1: catalytically inactive OTULIN^C129A (enzyme)
chain: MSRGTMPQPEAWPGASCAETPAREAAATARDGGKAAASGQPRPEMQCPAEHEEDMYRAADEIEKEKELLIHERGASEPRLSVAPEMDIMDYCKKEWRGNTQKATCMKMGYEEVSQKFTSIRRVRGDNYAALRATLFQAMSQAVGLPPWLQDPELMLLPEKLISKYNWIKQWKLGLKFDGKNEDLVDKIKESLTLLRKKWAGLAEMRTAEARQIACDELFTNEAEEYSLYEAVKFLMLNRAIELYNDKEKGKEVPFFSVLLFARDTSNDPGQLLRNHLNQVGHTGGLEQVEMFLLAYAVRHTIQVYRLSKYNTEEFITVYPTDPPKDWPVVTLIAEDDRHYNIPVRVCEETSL
